Measured values published in the supplement of paper PMC12645437, “Orthogonal IMiD-Degron Pairs Induce Selective Protein Degradation in Cells” (ACS Chemical Biology, 2025).
This is one part of the list.

B1: Q9UKT9 (peptide)
chain: FNCEQCGALFTQKGNLLRHIKL
B2: Q9UKT9 (peptide)
chain: FNCPICGHNFTQKGNLLRHIKL
B3: Q9UKT9 (peptide)
chain: FKCDICGADFTQKGNLLRHIKL
B4: Q9UKT9 (peptide)
chain: FGCPICGANFTQKGNLLRHIKL
B5: Q9UKT9 (peptide)
chain: LICPICGFQCTQKGNLLRHIKL
B6: Q9UKT9 (peptide)
chain: FGCNICGAHFTQKGNLLRHIKL
B7: Q9UKT9 (peptide)
chain: FTCEICGRRFTQKGNLLRHIKL
B8: Q9UKT9 (peptide)
chain: FHCNQCGHYFTQKGNLLRHIKL
B9: Q9UKT9 (peptide)
chain: FGCDICGAEFTQKGNLLRHIKL
B10: Q9UKT9 (peptide)
chain: FVCPICGHLFTQKGNLLRHIKL
B11: Q9UKT9 (peptide)
chain: FICNQCGHNFTQKGNLLRHIKL
B12: Q9UKT9 (peptide)
chain: FVCPICGAPFTQKGNLLRHIKL
B13: Q9UKT9 (peptide)
chain: FDCNVCGAFFTQKGNLLRHIKL
B14: Q9UKT9 (peptide)
chain: FCCPQCGAKFTQKGNLLRHIKL
B15: Q9UKT9 (peptide)
chain: FACPQCGAPFTQKGNLLRHIKL
B16: Q9UKT9 (peptide)
chain: FICPICGAWFTQKGNLLRHIKL
B17: Q9UKT9 (peptide)
chain: FACEICGAHFTQKGNLLRHIKL
B18: Q9UKT9 (peptide)
chain: FSCEICGAPFTQKGNLLRHIKL
B19: Q9UKT9 (peptide)
chain: LECNQCGFGCTQKGNLLRHIKL
B20: Q9UKT9 (peptide)
chain: FICEVCGAMFTQKGNLLRHIKL
B21: Q9UKT9 (peptide)
chain: LDCNQCGFICTQKGNLLRHIKL
B22: Q9UKT9 (peptide)
chain: FKCPVCGADFTQKGNLLRHIKL
B23: Q9UKT9 (peptide)
chain: FWCNICGANFTQKGNLLRHIKL
B24: Q9UKT9 (peptide)
chain: FWCPVCGARFTQKGNLLRHIKL
B25: Q9UKT9 (peptide)
chain: FICNICGAIFTQKGNLLRHIKL
B26: Q9UKT9 (peptide)
chain: LMCEICGFGCTQKGNLLRHIKL
B27: Q9UKT9 (peptide)
chain: FMCNQCGAHFTQKGNLLRHIKL
B28: Q9UKT9 (peptide)
chain: FVCPICGRRFTQKGNLLRHIKL
B29: Q9UKT9 (peptide)
chain: LICPICGFICTQKGNLLRHIKL
B30: Q9UKT9 (peptide)
chain: FYCDQCGAFFTQKGNLLRHIKL
B31: Q9UKT9 (peptide)
chain: FTCNICGAGFTQKGNLLRHIKL
B32: Q9UKT9 (peptide)
chain: FHCNVCGAQFTQKGNLLRHIKL
B33: Q9UKT9 (peptide)
chain: FQCEICGARFTQKGNLLRHIKL
B34: Q9UKT9 (peptide)
chain: FRCPVCGAPFTQKGNLLRHIKL
B35: Q9UKT9 (peptide)
chain: FMCNQCGRNFTQKGNLLRHIKL
B36: Q9UKT9 (peptide)
chain: FWCPICGRRFTQKGNLLRHIKL
B37: Q9UKT9 (peptide)
chain: FECPVCGAAFTQKGNLLRHIKL
B38: Q9UKT9 (peptide)
chain: FFCEVCGALFTQKGNLLRHIKL
B39: Q9UKT9 (peptide)
chain: FQCDQCGAIFTQKGNLLRHIKL
B40: Q9UKT9 (peptide)
chain: FHCEICGAIFTQKGNLLRHIKL
B41: Q9UKT9 (peptide)
chain: LNCPICGFECTQKGNLLRHIKL
B42: Q9UKT9 (peptide)
chain: FRCEICGAPFTQKGNLLRHIKL
B43: Q9UKT9 (peptide)
chain: LMCPICGFSCTQKGNLLRHIKL
B44: Q9UKT9 (peptide)
chain: FICEICGADFTQKGNLLRHIKL
B45: Q9UKT9 (peptide)
chain: FHCDQCGALFTQKGNLLRHIKL
B46: Q9UKT9 (peptide)
chain: LLCNQCGFFCTQKGNLLRHIKL
B47: Q9UKT9 (peptide)
chain: LLCPICGFLCTQKGNLLRHIKL
B48: Q9UKT9 (peptide)
chain: FTCPVCGADFTQKGNLLRHIKL
B49: Q9UKT9 (peptide)
chain: FICEQCGASFTQKGNLLRHIKL
B50: Q9UKT9 (peptide)
chain: FTCEICGRFFTQKGNLLRHIKL

The sequences below were run against no compound (DMSO) (assay: log2 fold change of degron read counts, EGFP-low vs EGFP+ sorted cells; higher = lower degron-EGFP level without compound (poor expression or instability)). Conditions: compound: DMSO control; 18 h.
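Also: jurkat cells carrying a lentiviral library of mutant zinc finger degrons fused to EGFP plus mCherry, mCherry+ cells FACS sorted, degron abundance counted by next-generation sequencing.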

Row | Sequence | log2 fold change of degron read counts
1 | B1 | -2.47
2 | B2 | -1.56
3 | B3 | -2.77
4 | B4 | -0.393
5 | B5 | 0.371
6 | B6 | 0.191
7 | B7 | -1.08
8 | B8 | 0.119
9 | B9 | -1.39
10 | B10 | -0.281
11 | B11 | -0.231
12 | B12 | 0.489
13 | B13 | 0.442
14 | B14 | -1.57
15 | B15 | -1.26
16 | B16 | 0.436
17 | B17 | -2.44
18 | B18 | -0.51
19 | B19 | -0.168
20 | B20 | -2.5
21 | B21 | 1.6
22 | B22 | -0.275
23 | B23 | -0.00785
24 | B24 | 0.509
25 | B25 | 0.244

Row | Sequence | log2 fold change of degron read counts
26 | B26 | 0.236
27 | B27 | -0.689
28 | B28 | -0.564
29 | B29 | 1.66
30 | B30 | -0.0152
31 | B31 | -0.608
32 | B32 | -0.913
33 | B33 | -0.795
34 | B34 | 0.432
35 | B35 | 0.0499
36 | B36 | -1.03
37 | B37 | -1.24
38 | B38 | -0.156
39 | B39 | -1.81
40 | B40 | -0.486
41 | B41 | -0.0958
42 | B42 | -0.7
43 | B43 | 0.81
44 | B44 | -1.24
45 | B45 | -0.815
46 | B46 | 1.86
47 | B47 | 2.12
48 | B48 | -0.64
49 | B49 | -1.71
50 | B50 | -1.05
